Laboratory results reported in PubChem BioAssay AID1508642 (National Center for Advancing Translational Sciences (NCATS), 2021).
The campaign covered roughly 43,000 compounds. About 200 (0.47%) were called active. Not shown: some 12% with an inconclusive outcome. Calls follow the shape of the dose curve; as a rule, active = well fitted cell-killing curve with a large enough effect; inconclusive = small, poorly fitted or top-dose-only effect, or effect the other way; inactive = flat fitted curve, though single readings scatter. The list shows a part of the results.

experiment: Cell viability qHTS assay in S16 Pmp22-F2sN cells; conditions: S16 Pmp22-F2sN Schwann cells (luciferase reporters placed in the Pmp22 gene) viability, CellTiter-Glo, 24 h; series mostly up to 57.5 µM; activity change, negative = cytotoxicity: at the top concentration; also: nearly all actives have a fitted effect of over 65% in size
Summary of the method: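 Rat S16 Schwann reporter line, 24 h treatment with library compounds delivered at 23 nL per well. Cell viability by CellTiter-Glo luminescence.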
% is scaled to controls: 0 for no effect and ±100 for the full control effect.

Row | SMILES | activity change, negative = cytotoxicity
1 | Cc1ccc(OCC(=O)Nc2c(C(=O)c3ccc(Cl)cc3)oc3ccccc23)cc1C | inactive: 7.42%
2 | CCCCNC(=O)CCc1c(C)nc2cc(-c3ccccc3)nn2c1C | inactive: 0.268%
3 | COc1ccc(N2C(=O)C(CC(=O)Nc3ccccc3)N(CCC3=CCCCC3)C2=O)cc1 (stereo not given) | inactive: 2.39%
4 | Cc1[nH]c2ccccc2c1C1(O)C(=O)N(Cc2ccccc2)c2ccc(Cl)cc21 (stereo not given) | inactive: 9.51%
5 | COc1ccc(-c2nnc(SC(C)C(=O)O)o2)cc1 (stereo not given) | inactive: -0.845%
6 | O=C(CN1C(=O)CSc2ccc(S(=O)(=O)N3CCCC3)cc21)NCc1ccccc1Cl | inactive: 1.74%
7 | COc1ccc(-n2nc(C(=O)Nc3ccc(C(C)=O)cc3)nc2-c2ccccc2)cc1 | inactive: 19.1%
8 | CCOc1ccc(C2c3c(oc4ccc(C)cc4c3=O)C(=O)N2CCCN(C)C)cc1OC (stereo not given) | inactive: 0.329%
9 | COc1ccc(CN(Cc2ccco2)C(=O)COc2ccccc2OC)cc1 | inactive: 5.72%
10 | CCc1ccc2occ(CC(=O)Nc3ccc(OC)c(Cl)c3)c2c1 | inactive: -3.66%
11 | CCOc1ccc(C(=O)Oc2c(Sc3ccccc3)c(C)nn2C(C)(C)C)cc1OCC | inactive: 4.4%
12 | Cc1nc(SCC(=O)Nc2ccc(C)c(Cl)c2)cc(-c2ccccc2)n1 | inactive: 4.01%
13 | O=C(Nc1ccccc1Cl)[C@H](CSCc1ccccc1)N1Cc2ccccc2C1=O | inactive: -5.07%
14 | O=C(c1ccc2c(c1)CCN2S(=O)(=O)c1ccccc1)N1CCN(c2ccccc2F)CC1 | inactive: 0.969%
15 | CC(C)c1ccc(CNC(=O)c2ccc(N3CCCC3)c(NC(=O)NCc3ccccc3)c2)cc1 | inactive: -20.9%
16 | CCc1ccccc1-n1cnc2cc(C(=O)NC3CCCCCC3)ccc21 | inactive: 15.1%
17 | Cc1ccc(C)c(N2CCN(C(=O)CCS(=O)(=O)c3cc(Br)cc4c3N(C(=O)C3CC3)CC4)CC2)c1 | inactive: -23.1%
18 | CCC(=O)N1CCc2cc(CNS(=O)(=O)c3ccc(C(C)C)cc3)ccc21 | inactive: -6.04%
19 | COC(=O)c1ccc2c(=O)n(CCCCCC(=O)N3CCN(c4cc(C)ccc4C)CC3)c(=O)[nH]c2c1 | inactive: 10.1%
20 | CCOC(=O)c1c(NC(=O)/C=C/c2ccc(OCC)cc2)sc(C(C)=O)c1C | inactive: 1.14%

Row | SMILES | activity change, negative = cytotoxicity
21 | COc1cc2nc(NCCc3ccccc3)n3nc(-c4cccnc4)nc3c2cc1OC | inactive: 0.271%
22 | CCCSc1ncc(Cl)c(C(=O)N2CCN(c3cccc(Cl)c3)CC2)n1 | inactive: -0.564%
23 | CCOc1ccc(NC(=O)CC2C(=O)N(c3ccc(OC)cc3)C(=O)N2C2CCCCC2)cc1 (stereo not given) | inactive: -1.37%
24 | COc1ccc(CNC(=O)C(Cc2ccccc2)NS(=O)(=O)c2ccc3c(c2)CCN3C(C)=O)cc1 (stereo not given) | inactive: -13.7%
25 | Cc1ccc(NC(=O)Nc2cn(C)c(=O)c3ccccc23)c(Cl)c1 | inactive: 20.1%
26 | Cc1cccc(N2CCN(C(=O)C3CCN(S(=O)(=O)c4c(C)noc4/C=C/c4ccccc4F)CC3)CC2C)c1 (stereo not given) | inactive: 0.154%
27 | Cc1ccc2oc(=O)c3cnn(CC(=O)N4CCN(c5ccccc5F)CC4)c3c2c1 | inactive: 16.4%
28 | Cc1ccc(C2C=C(c3ccccc3)Nc3nc(NS(=O)(=O)c4ccc(C)cc4)nn32)cc1 (stereo not given) | inactive: -1.07%
29 | Cc1cc(=O)n(Cc2ccccc2)c2c1c(C)nn2-c1ccccc1 | inactive: 1.82%
30 | CCOc1ccc(NC(=O)CC2C(=O)N(c3ccccc3)C(=O)N2C2CCCC2)cc1 (stereo not given) | inactive: -8.47%
31 | Cc1cccc(N2CCN(C(=O)c3cnn(-c4ccc(F)cc4F)c3C3CCN(C(=O)OC(C)(C)C)CC3)CC2)c1C | inactive: -4.05%
32 | Cc1ccc(CNC(=O)Cn2nc(N3CCN(c4ccccc4)CC3)ccc2=O)cc1 | inactive: 9.32%
33 | COc1ccc(-n2c(SCC(=O)NCc3ccco3)nc3c([nH]c4ccccc43)c2=O)cc1 | inactive: 15.2%
34 | CCOc1ccccc1NC(=O)c1cc2cc3cc(C)ccc3nc2s1 | inactive: 1.31%
35 | CCCn1c2ccccc2c2cnn(CC(=O)N(CC)c3cc(C)ccc3C)c(=O)c21 | inactive: -6.46%
36 | CCCNC(=O)CSc1c2c(nc3ccc(Cl)cc13)CCCC2 | inactive: 16.1%
37 | Cc1ccc(NC(=O)CSc2nc3ccccc3c(=O)n2CCC(=O)NC2CCCCC2)cc1C | inactive: -13.1%
38 | CCc1cccc(NC(=O)CSc2nc3ccccc3nc2N2CCCCC2)c1 | inactive: 1.19%
39 | COc1cccc(NC(=O)c2sc3nc(C)c(C(=O)Nc4ccc(C)cc4C)c(-c4ccco4)c3c2N)c1 | inactive: 6.29%
40 | COc1ccc(OCC(=O)Nc2cccc(C(=O)OCc3cc(=O)n4nc(C)sc4n3)c2)cc1 | inactive: 5.47%

Row | SMILES | activity change, negative = cytotoxicity
41 | CNC(=O)CCCN1C(=O)CCn2nc(-c3cn(C)c4ccccc34)cc21 | inactive: 8.18%
42 | COCc1cc(C)nc2sc(C(=O)Nc3ccc(C(C)=O)cc3)c(N)c12 | inactive: 0.251%
43 | Cc1nc2c3ccccc3nc(NNC(=O)CCC(=O)N3CCN(c4cc(Cl)ccc4C)CC3)n2n1 | inactive: 0.496%
44 | Cc1csc2nc(COc3ccc(NC(=O)C(C)C)cc3)cc(=O)n12 | inactive: 8.81%
45 | CCc1ccc(NC(=O)C2CCCN2S(=O)(=O)c2ccc3nc(-c4ccccc4)[nH]c3c2)cc1 (stereo not given) | inactive: -28.8%
46 | CCN(CC)S(=O)(=O)c1ccc2c(c1)c(=O)c(C(=O)NCCc1ccccc1)cn2C | inactive: 1.06%
47 | COc1ccc(C2CC(=O)c3cnc4c(-c5ccc(F)cc5)c(C)nn4c3C2)cc1OC (stereo not given) | inactive: 5.21%
48 | Cc1ccccc1NC(=O)CC1NCCNC1=O (stereo not given) | inactive: 1.18%
49 | C=CCc1ccccc1OCc1nc2ccc(C)cc2[nH]1 | inactive: -24.5%
50 | COc1ccc(-n2ncc(C(=O)N3CCN(C4CCCCC4)CC3)c2C2CCN(C(=O)OC(C)(C)C)CC2)cc1 | inactive: -2.96%
51 | CCOC(=O)c1c(NC(=O)CSc2nc(-c3ccc(OC)cc3)cc(C(F)(F)F)n2)sc(C)c1C | inactive: 9.93%
52 | Cn1c(=O)n(CC(=O)O)c(=O)c2c1nc1n2CCCN1c1ccc(Cl)cc1 | inactive: -3.06%
53 | Cc1ccc(C(=O)NCC(c2cccs2)S(=O)(=O)c2ccccc2)cc1C (stereo not given) | inactive: -8.43%
54 | CC(C)Nc1nc2c(S(=O)(=O)c3cccc(Cl)c3)nnn2c2ccsc12 | inactive: -6.56%
55 | CC(=O)c1cccc(NC(=O)CCn2nc(C)c(S(=O)(=O)N(C)C)c2C)c1 | inactive: -3.98%
56 | CC(C)CCNC(=O)c1ccc2nc(CCc3ccccc3)oc2c1 | inactive: 1.11%
57 | CC(C)c1ccc(S(=O)(=O)N2CCN(CC(=O)Nc3ccccc3C(F)(F)F)CC2)cc1 | inactive: -0.821%
58 | COc1cc(CN(C(=O)Nc2cccc(Cl)c2)c2ccccn2)cc(OC)c1OC | inactive: -8.37%
59 | COC(=O)c1nnn(CC(=O)Nc2c(C)cccc2C)c1N | inactive: -7.51%
60 | COC(=O)c1ccc(C(=O)OC)c(NC(=O)c2c(-c3ccccc3)noc2C)c1 | inactive: -0.703%
